Assay results reported in PubChem BioAssay AID686978 (National Center for Advancing Translational Sciences (NCATS), 2013).
About 64,000 (15%) of roughly 420,000 compounds were called active. Inconclusive means that the source gave no clear call. Such entries were picked first, then a sample of the others. Calls follow the shape of the dose curve; as a rule, active = well fitted inhibition curve with a large enough effect; inconclusive = small, poorly fitted or top-dose-only effect; inactive = flat fitted curve, though single readings scatter. No potency is given beside an inconclusive call; the fits are too rough.

Test: qHTS for Inhibitors of human tyrosyl-DNA phosphodiesterase 1 (TDP1): qHTS in cells in absence of CPT; also: nearly all actives have a fitted effect of over 55% in size
Conditions: DT40 Tdp1-/- hTDP1 cells, no CPT, ATP luminescence, 48 h; activity change, negative = growth inhibition: at 46.2 µM (top of the series) unless noted
How it was run: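 Chicken DT40 Tdp1-/- cells complemented with human TDP1, screened without camptothecin (DMSO vehicle only), 400 cells/well. Compounds pin-transferred, cells incubated at 37 °C for at least 48 hr. Growth read as ATP-dependent luminescence (CellTiter-Glo, 30 min at RT).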
% is scaled to controls: 0 for no effect and ±100 for the full control effect; potency is read from the fitted curve at half-maximal effect; tags tell the direction and shape of the fitted curve.

Structure (SMILES) | Potency | activity change, negative = growth inhibition
Cc1cccc(NC(=S)N/N=C/C(C)c2ccccc2)c1C (configuration not stated) | inconclusive [inhibitor, partial curve] | 
COc1ccccc1Nc1nc(-c2cccs2)cs1 | inactive | 
O=C(COc1ccc(F)cc1)NCC1(N2CCCCC2)CCCCC1 | inactive | 
CCN(CC)c1ccc2c(C)c(CO)c(=O)oc2c1 | inactive | 
CC(=O)c1ccc(-c2nnc(CCC(=O)N(C)Cc3c(C)nc4ccccn34)o2)s1 | inconclusive [inhibitor, single point] | 
CCn1c2ccccc2c2cc(NC(=O)COC(=O)c3cc(Cl)c(N)cc3OC)ccc21 | inconclusive [inhibitor, single point] | 
O=C(Nc1ccc(F)cc1)Nc1ccccc1N1CCCCC1 | inconclusive [inhibitor, single point] | 
CN(NC(=O)c1ccccc1F)c1ncccc1[N+](=O)[O-] | inactive | 
CCCC1S/C(=N/N=C/c2cccs2)NC1=O (configuration not stated) | inconclusive [inhibitor, single point] | 
O=C(CN(C(=O)CCC(=O)Nc1ccccn1)c1ccc2c(c1)OCCO2)NCCc1ccccc1 |  | inconclusive: -33.2% [inhibitor]
CCOC(=O)Cc1csc(NC(=O)/C=C/c2ccco2)n1 | inactive | 
C=CCOc1ccc2oc(=O)cc(C)c2c1 |  | inconclusive: -32.3% [inhibitor]
CN(C(=O)c1cc2sccc2n1C)C1CCCCC1 | inconclusive [inhibitor, partial curve] | 
CC(=O)Oc1ccc2c3c(c(=O)oc2c1C)CCCC3 | inconclusive [inhibitor, partial curve] | 
CCOc1ccccc1Nc1ncccc1C(=O)N1CCCC1 | inconclusive [inhibitor, partial curve] | 
S=c1[nH]nc(-c2ccc(Br)cc2)n1-c1ccc2c(c1)OCCO2 | active: 18.4 µM | 
COc1ccc(N(C(=O)C(C)C)S(=O)(=O)c2ccc3c(c2)n(C)c(=O)n3C)cc1 |  | inconclusive: -30.4% [inhibitor]
CC(C)OCCCNC(=S)N1CCC(C(=O)c2ccc(F)cc2)CC1 | inconclusive [inhibitor, single point] | 
COCc1c(C(=O)Nc2nc(C)cs2)oc2ccccc12 | inconclusive [inhibitor, single point] | 
CN(C)CCN(Cc1ccccc1)c1ccnc(N(C)C)c1C#N |  | inconclusive: -34.6% [inhibitor]
CCCOc1ccc(Cc2c(O)nc(SC)[nH]c2=O)cc1 | inactive | 
Cc1ccc(S(=O)(=O)N2CCOCC2)cc1C(=O)N1CC(C)OC(C)C1 (configuration not stated) | inactive | 
CCCN1C(=O)c2ccccc2NC1c1ccc(OC)c(COc2ccc([N+](=O)[O-])cc2)c1 (configuration not stated) | active: 10 µM | 
O=C(Nc1nccs1)c1cccc(N2C(=O)C3C4C=CC(C4)C3C2=O)c1 (configuration not stated) | inconclusive [inhibitor, partial curve, poor fit] | 

Structure (SMILES) | Potency | activity change, negative = growth inhibition
COc1ccccc1N1CCN(C(=O)C(CC(C)C)NC(=O)C2CCCCC2)CC1 (configuration not stated) | inconclusive [inhibitor, partial curve] | 
C=C(C)Cn1c(=O)c2c(nc3n2CCCN3CCc2ccccc2)n(C)c1=O | active: 13 µM | 
N#CCCN(C1CCCCC1)S(=O)(=O)c1cccc2nsnc12 | inconclusive [inhibitor, single point] | 
O=C(NCC1(c2ccccc2)CCCC1)C(=O)Nc1cccc(C(F)(F)F)c1 | inconclusive [inhibitor, single point] | 
Cc1ccccc1NS(=O)(=O)c1ccc(C(=O)NCC(C)(C)N2CCOCC2)cc1 | inconclusive [inhibitor, partial curve, poor fit] | 
N#Cc1nc(COc2ccc(Cl)cc2)oc1N1CCCCCC1 | inactive | 
Cc1ccc(N(CCC#N)C(=O)CSc2ccc3c(c2)OCCO3)cc1 | inconclusive [inhibitor, partial curve] | 
Brc1cccc2sc(N3CCN(c4ccccc4)CC3)nc12 | inactive | 
O=C(CCCCC(=O)NN=Cc1ccc2c(c1)CCC2)NN=Cc1ccc2c(c1)CCC2 | inconclusive [inhibitor, single point] | 
Cc1cc(C)c(S(=O)(=O)N2CCCCC2)c(C)c1N(C)S(=O)(=O)c1ccccc1 | inconclusive [inhibitor, single point] | 
CCc1ccccc1OCC(=O)Nc1ccc(N2CCCC2)cc1C | inconclusive [inhibitor, single point] | 
Cn1c(SCC(=O)NC(C)(C)C)nnc1-c1ccc(C(C)(C)C)cc1 | active: 23.1 µM | 
N/C(=N\OC(=O)c1cc(Br)ccc1Cl)c1ccccn1 | inactive | 
CCC1=C/C(=C/N(C)c2ccccc2)C(=O)S1 | inconclusive [inhibitor, single point] | 
CCOc1ccc(N2CC(C(=O)Nc3ccccc3N3CCCC3)CC2=O)cc1 (configuration not stated) | inconclusive [inhibitor, single point] | 
COc1ccc(S(=O)(=O)N(C)Cc2ccc3c(c2)OCCO3)cc1 | inconclusive [inhibitor, single point] | 
COc1ccc2nc(NS(=O)(=O)c3ccc(C)cc3)c(Nc3cc(Cl)ccc3OC)nc2c1 | active: 23.1 µM | 
N#Cc1c(-c2ccc(F)cc2)nc(-c2ccccc2)[nH]c1=O | inconclusive [inhibitor, partial curve, poor fit] | 
CS(=O)(=O)Nc1ccc2c(c1)[C@H]1C[C@H](CC(=O)NCc3ccccc3)O[C@H](CO)[C@H]1O2 | inactive | 
COc1ccccc1N(C(=O)c1ccco1)C(C(=O)NC1CCCC1)c1cccs1 (configuration not stated) | inactive | 
CCCC1=C(C(=O)OCC)C(c2ccc(OC)c(C)c2OC)C(C#N)=C(N)O1 (configuration not stated) | inconclusive [inhibitor, partial curve] | 
O=C(CNC(=O)c1ccccc1Br)N/N=C/c1ccco1 | inactive | 
CC(C)(CNC(=O)c1ccc(S(=O)(=O)Nc2ccc(Cl)cc2)cc1)N1CCOCC1 | inconclusive [inhibitor, single point] | 
O=C(CN1C(=O)CSC1=O)Nc1ccc(F)c(F)c1F | inconclusive [inhibitor, single point] | 

Structure (SMILES) | Potency | activity change, negative = growth inhibition
CC1CCCCN1CCNC(=O)c1ccc2c(=O)n(CCc3ccccc3)c(=O)[nH]c2c1 (configuration not stated) | inconclusive [inhibitor, partial curve, poor fit] | 
CN(C)CCCN(C(=O)c1ccc(S(=O)(=O)N2CCCCCC2)cc1)c1nc2cc3c(cc2s1)OCCO3 | inconclusive [inhibitor, single point] | 
CCn1c(C)nc2c1C(=O)c1ccccc1C2=O | inconclusive [inhibitor, single point] | 
O=C(C1CCC1)N1CCN(c2cccc(C(F)(F)F)c2)CC1 | inconclusive [inhibitor, single point] | 
O=C(C[n+]1ccc2ccccc2c1)Nc1cc(C(F)(F)F)ccc1Cl | inconclusive [inhibitor, single point] | 
O=C(CCc1nc2ccccc2c(=O)[nH]1)Nc1nnc(SCc2ccc(Cl)cc2)s1 |  | inconclusive: -30.4% [inhibitor]
CCOc1ccc(CCNC(=O)CSc2cc(=O)n(C)c3ccccc23)cc1OCC | inconclusive [inhibitor, single point] | inconclusive: -31.9% [inhibitor]
Cc1cc(C(=O)COC(=O)c2cccnc2Cl)c(C)n1CC1CCCO1 (configuration not stated) | inconclusive [inhibitor, partial curve] | 
CC1CCC(NC(=O)C2COc3ccccc3O2)CC1 (configuration not stated) | inconclusive [inhibitor, single point] | 
c1cncc(-c2nc(-n3ccnc3)c3ccccc3n2)c1 | inconclusive [inhibitor, single point] | 
O=C(NNc1cccc(Cl)n1)Nc1ccc(Cl)cc1 | inactive | 
O=C(Nc1ccc(Cl)cc1F)c1cccc2ccccc12 | inconclusive [inhibitor, single point] | 
O=C1CC(c2ccccc2)Cc2[nH]c(=O)c(-c3nc(-c4cccc(Cl)c4)cs3)cc21 (configuration not stated) | active: 5.17 µM | 
Cc1ccccc1-n1nc(C)c2cc(C(=O)NCc3cccnc3)sc21 | inactive | 
COc1ccc(NC(=O)COC(=O)c2ccc3c(c2)OCO3)c(OC)c1 | inconclusive [inhibitor, single point] | 
CC(C)c1ccc(OCC(=O)NC2CC(C)(C)NC(C)(C)C2)c(Br)c1 | inconclusive [inhibitor, single point] | 
COc1cc(OC)cc(C(=O)Nn2cc(C(=O)Nc3ccccc3F)c3ccccc3c2=O)c1 | inconclusive [inhibitor, single point] | 
Nc1c(C(=O)N/N=C/c2ccc([N+](=O)[O-])cc2)cnn1-c1ccccc1 | inactive | 
Cc1ccc(C)c(NC(=S)NC(C)C(c2ccccc2)N2CCN(C)CC2)c1 (configuration not stated) | inconclusive [inhibitor, single point] | 
CCOc1ccc2nc(C(=O)N3CCCC(C)C3)sc2c1 (configuration not stated) | inconclusive [inhibitor, single point] | 
O=C(O)C1(c2ccccc2)CCN(S(=O)(=O)c2cccc(Cl)c2)CC1 | inactive | 
CC(=O)N(c1ccccc1)c1nc(/C=C/C(=O)Nc2c(C)cc(C)cc2C)cs1 |  | inconclusive: -36.3% [inhibitor]
N#CC(C#N)=Cc1ccc(OCC(=O)N2CCOCC2)cc1 | inconclusive [inhibitor, single point] | 
